The campaign covered roughly 200,000 compounds. About 4,500 (2.2%) were called active. The inconclusive results got no clear call from the source; some entries with a clear call stand among them for comparison. The call rests on the fitted dose curve; in most records, active means well fitted inhibition curve with a large enough effect; inconclusive means small, poorly fitted or top-dose-only effect, or effect the other way; inactive means flat fitted curve, though single readings scatter. A potency beside an inconclusive call is a rough fit, not a confirmed value.
The molecules below were run against Cruzipain (Trypanosoma cruzi) (UniProt P25779) (assay: qHTS Assay for Promiscuous and Specific Inhibitors of Cruzain (without detergent)). Conditions: purified cruzain, Z-FR-AMC fluorescence, no detergent.
Chain of UniProt P25779 (P25779 whole entry, looked up): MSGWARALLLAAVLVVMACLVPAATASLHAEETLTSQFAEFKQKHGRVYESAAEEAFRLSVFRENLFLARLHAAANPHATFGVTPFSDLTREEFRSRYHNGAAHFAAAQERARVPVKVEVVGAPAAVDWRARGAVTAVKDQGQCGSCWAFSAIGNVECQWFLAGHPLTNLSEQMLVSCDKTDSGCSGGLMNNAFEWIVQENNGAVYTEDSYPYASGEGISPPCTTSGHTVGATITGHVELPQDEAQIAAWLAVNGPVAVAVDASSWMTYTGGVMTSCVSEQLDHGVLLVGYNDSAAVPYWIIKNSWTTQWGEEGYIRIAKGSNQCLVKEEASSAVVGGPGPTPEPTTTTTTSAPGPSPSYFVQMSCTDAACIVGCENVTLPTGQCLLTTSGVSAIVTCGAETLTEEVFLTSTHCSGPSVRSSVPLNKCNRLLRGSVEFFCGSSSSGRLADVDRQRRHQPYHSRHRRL
Procedure, shortened: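 Detergent-free condition (0.00005% Triton X-100) in acetate buffer pH 5.5 with DTT. 1.5 nM enzyme and compound were pre-mixed 15 min, then 2 uM Z-FR-AMC substrate added; reaction progress from fluorescence change between first and third reads (60 s).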
Further: nearly all actives have a fitted effect of over 40% in size.
Potency means the concentration at half of the fitted maximal effect; tags describe the fitted curve by direction and shape.
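Wherever max response, negative = inhibition is given: plate controls were enzyme without inhibitor for no effect and buffer without enzyme for full effect.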

Compound | Potency | max response, negative = inhibition
CN1CCN(CCOC2c3ccccc3CSc3ccc(Cl)cc32)CC1 (stereo not given) | inconclusive: 31.6 µM [inhibitor, single point] | 
c1csc(C(c2nnnn2C2CCCCC2)N2CCN(c3nc4ccccc4s3)CC2)c1 (stereo not given) | inconclusive: 31.6 µM [inhibitor, single point] | 
COc1cc(NC(=O)CSc2nc3ccccc3cc2Cc2ccccc2)cc(OC)c1 | active: 31.6 µM | 
Cc1c(C(=O)NCc2cccnc2)oc2ccc(S(=O)(=O)N3CCCC(C)C3)cc12 (stereo not given) | inconclusive: 31.6 µM [activator, partial curve] | 
COc1ccc2c(c1[N+](=O)[O-])CCC/C2=N/OC(=O)c1cccc2ccccc12 | active: 20 µM | 
CCCCn1c(Oc2ccc(C(=O)OC)cc2)nc2c1c(=O)n(C)c(=O)n2C | inconclusive: 31.6 µM [activator, single point] | 
COc1ccc(-c2noc(CNC(=O)COc3cccc(C)c3C)n2)cc1 |  | inactive: 9.29%
Cc1cc(OCC(=O)N2CCOCC2)c(C(C)C)cc1Cl | inconclusive: 39.8 µM [activator, single point] | 
O=c1[nH]c2ccc(Br)cc2c(-c2ccccc2)c1N1CCOCC1 | inconclusive: 31.6 µM [activator, single point] | 
COc1ccc(NC(=O)CN2CCC(n3c(C)nc4cc(F)ccc43)CC2)c(OC)c1 | inconclusive: 31.6 µM [activator, single point] | 
O=C(NCCc1ccc(Cl)cc1)C1CCN(S(=O)(=O)c2ccc3[nH]ccc3c2)CC1 | inconclusive: 39.8 µM [inhibitor, single point] | 
CCc1ccc(C(=O)CC2(O)C(=O)N(CCc3ccccc3)c3ccc(Cl)cc32)cc1 (stereo not given) |  | inactive: -3.18%
Cn1c(=O)c2c(nc(SCC(=O)Nc3ccc(F)c(F)c3)n2Cc2ccccc2F)n(C)c1=O |  | inactive: 13.7%
COc1cc2c(cc1C=O)OCO2 | inconclusive: 39.8 µM [inhibitor, single point] | 
Cn1c(=O)c2c(-c3ccc(Cl)cc3)n(CCc3ccccc3)cc2n(C)c1=O | inconclusive: 39.8 µM [activator, single point] | 
O=C(Oc1ccccc1)N1CCC2(CC1)CCN(c1ccccn1)CC2 |  | inactive: -19.8%
CC(C)(C)OC(=O)N1CCOCCOCCN(C(=O)OC(C)(C)C)CCOCC1 | inconclusive: 12.6 µM [activator, partial curve, poor fit] | 
O=C(OCC(=O)N1CCc2ccccc21)c1c2c(nc3ccccc13)CCCCC2 | inconclusive: 39.8 µM [inhibitor, single point] | 
COCCn1c(C)cc(C(=O)COC(=O)CNC(=O)c2ccccc2)c1C |  | inactive: -29.6%
CCCCN(Cc1cc2cc(C)ccc2[nH]c1=O)C(=O)c1cccc(Cl)c1 |  | inactive: -0.742%
O=C(Nc1ccc(N2C(=O)c3cccc4cccc(c34)C2=O)cc1)c1ccc(N2CCCCC2)c([N+](=O)[O-])c1 | active: 7.94 µM | 
Cc1n[nH]c(C)c1C(=O)CC1(O)C(=O)N(CCc2ccccc2)c2ccc(Br)cc21 (stereo not given) | inconclusive: 39.8 µM [activator, single point] | 

Compound | Potency | max response, negative = inhibition
C[C@@H]1O[C@@H](O)[C@@H](O)[C@H](O)[C@H]1O |  | inactive: 4.04%
COc1ccc(S(=O)(=O)c2c(Nc3cccc(Cl)c3)sc(C(=O)c3ccccc3)c2N)cc1 | active: 3.98 µM | 
CCc1cccc(CC)c1N(COC)C(=O)Cn1c(CO)nc2ccccc21 | inconclusive: 25.1 µM [activator, single point] | 
Cc1nc2c3ccccc3nc(NNC(=O)CCC(=O)N3CCN(c4ccc(F)cc4)CC3)n2n1 | inconclusive: 39.8 µM [activator, single point] | 
c1ccc(CCn2nnnc2C(c2cccnc2)N2CCN(c3nc4ccccc4s3)CC2)cc1 (stereo not given) | inconclusive: 12.6 µM [activator, partial curve] | 
c1ccc(-c2cn3nc(-c4ccccc4)cnc3n2)cc1 | inconclusive: 39.8 µM [inhibitor, single point] | 
COCCCNC(=O)c1c(NC(=O)c2ccccc2Cl)n(Cc2ccccc2)c2nc3ccccc3nc12 | inconclusive: 15.8 µM [activator, partial curve] | 
CNC(=O)c1ccc(-c2sc3nc(N4CCOCC4)c4c(c3c2N)CCCC4)o1 | inconclusive: 39.8 µM [activator, single point] | 
COc1ccc(OCC(=O)N/N=c2\oc3c(OC)cccc3cc2C(N)=O)cc1 | inconclusive: 31.6 µM [inhibitor, single point] | 
COc1cccc(CNC(=O)C2CCCN(c3nnc(-n4c(C)ccc4C)s3)C2)c1OC (stereo not given) |  | inactive: 11.7%
CCn1c2ccccc2c2cc(NC(=O)COC(=O)c3ccccc3F)ccc21 | inconclusive: 39.8 µM [inhibitor, single point] | 
CCCCCn1c(CN2CC(C)OC(C)C2)nc2c1c(=O)n(C)c(=O)n2C (stereo not given) | inconclusive: 20 µM [activator, partial curve] | 
O=C1N=c2ccccc2=C1c1sc(=S)n(CC2CCCO2)c1O (stereo not given) |  | inactive: -13%
N#Cc1c(NC(=O)c2ccc(Cn3cc(Br)cn3)o2)sc2c1CCCCCC2 | inconclusive: 25.1 µM [inhibitor, single point] | 
Cc1c(C)n(Cc2ccc(Cl)cc2)c2ccc(C(=O)N3CCN(c4ccccc4F)CC3)cc12 | active: 12.6 µM | 
O=C(/C=C/c1ccc(F)cc1)Nc1cccc(S(=O)(=O)Nc2cccc(C(F)(F)F)c2)c1 | inconclusive: 39.8 µM [inhibitor, single point] | 
COc1ccc(OC)c2sc(NC(=O)c3ccc(Br)s3)nc12 | active: 15.8 µM | 
CC(=O)Nc1ccc(OCC(O)Cn2c3ccccc3c3ccccc32)c(C)c1 (stereo not given) | inconclusive: 39.8 µM [activator, single point] | 
O=C(CSc1nncs1)N1c2ccccc2Sc2ccccc21 | inconclusive: 39.8 µM [inhibitor, single point] | 
COc1ccc(CNC(=O)C(=O)NCC(c2ccco2)S(=O)(=O)c2ccc(Cl)cc2)cc1 (stereo not given) |  | inactive: -2.46%
Cc1nn(CC(=O)NC2CC2)c(=O)c2cc3cc(F)ccc3n12 |  | inactive: 3.11%
O=C(CSc1nnc(SCc2cccc3ccccc23)s1)N=Nc1c(O)[nH]c2ccccc12 | active: 7.94 µM | 

Compound | Potency | max response, negative = inhibition
O=S(=O)(c1ccc(F)cc1)n1ccc(-c2cccc(OCc3ccc(Cl)cc3Cl)c2)n1 | inconclusive: 31.6 µM [inhibitor, single point] | 
COc1ccc(-n2c(SCC(=O)N3CCc4ccccc43)nnc2-c2c[nH]c3ccccc23)cc1 | inconclusive: 39.8 µM [inhibitor, single point] | 
CCOc1ccccc1Nc1sc(C(=O)c2ccccc2)c(N)c1C(=O)Nc1ccc(F)cc1 | inconclusive: 39.8 µM [inhibitor, single point] | 
Cc1ccccc1N1CCN(C2=NC(=O)/C(=C\c3cccs3)S2)CC1 | inconclusive: 31.6 µM [inhibitor, single point] | 
CCc1ccc(NC(=O)CC(NCc2cccnc2)C(=O)O)cc1 (stereo not given) |  | inactive: -13.5%
COc1ccccc1CC(=O)Nc1ccc(-c2noc(COc3ccc(Br)cc3)n2)cc1 | inconclusive: 15.8 µM [inhibitor, partial curve, poor fit] | 
CCCCC(=O)Nc1nnc(C)s1 |  | inactive: -13.6%
Cc1cccnc1NC(=O)Nc1cccc2ccccc12 | inconclusive: 39.8 µM [inhibitor, single point] | 
Cc1ccc(-c2csc(NC(=O)c3ccc(S(=O)(=O)N4CCc5ccccc54)cc3)n2)cc1 | active: 5.01 µM | 
CCOC(=O)N1CCC(NC(=O)c2ccc3c(c2)sc2nc(-c4cccc(OC)c4)cn23)CC1 | inconclusive: 39.8 µM [activator, single point] | 
COc1ccc(Cl)cc1S(=O)(=O)N1CCN(C(=O)COc2ccccc2)CC1 | inconclusive: 39.8 µM [activator, single point] | 
Cc1nn(CCc2nc(-c3ccco3)cs2)c2[nH]c(=O)cc(C(F)(F)F)c12 | inconclusive: 39.8 µM [activator, single point] | 
COc1ccccc1NC(=O)N1CCN(c2ccc3nnc(-c4ccc(F)cc4)n3n2)CC1 | inconclusive: 31.6 µM [activator, single point] | 
CCCn1c(C)nc2c(NCC3CCCN3CC)nc(C)nc21 (stereo not given) |  | inactive: 1.67%
Cc1ccc(NC(=O)CN2c3cccc4cccc(c34)S2(=O)=O)cc1S(=O)(=O)N1CCOCC1 | inconclusive: 25.1 µM [inhibitor, single point] | 
COc1cc2c(cc1OC)-c1cc(NC3CCCCCCC3)nc(=O)n1CC2 | inconclusive: 39.8 µM [inhibitor, single point] | 
Cc1cccc(N2CCN(c3ccc4cc(S(=O)(=O)N5CCC(C)CC5)ccc4n3)CC2)c1C |  | inactive: -3.53%
CCOC(=O)c1c(NC(=O)Cc2coc3ccc(CC)cc23)sc2c1CCC2 | inconclusive: 12.6 µM [inhibitor, partial curve] | 
COc1ccccc1-c1cc(C(=O)Nc2cc(C)n(Cc3ccc(Cl)cc3)n2)no1 | inconclusive: 39.8 µM [inhibitor, single point] | 
Clc1ccc(C2=CSC3=Nc4cccc5cccc(c45)N23)cc1 | inconclusive: 3.16 µM [inhibitor, single point] | 
O=C(On1c(-c2ccccc2)nc2ccccc2c1=O)c1ccco1 | inconclusive: 20 µM [inhibitor, single point] | 
